# In all, about 390,000 compounds went through this assay and about 610 (0.16%) were called active. Roughly 4% stayed inconclusive and do not appear here. The call rests on the fitted dose curve; in most records, active means well fitted inhibition curve with a large enough effect; inconclusive means small, poorly fitted or top-dose-only effect, or effect the other way, or another doubt; inactive means no such curve, though single readings can be large or run the other way. The entries are a selection whose mix differs from that of the whole data set.
# Assay: Nrf2 qHTS screen for inhibitors: counterscreen for cytotoxicity
# Details: A549 ARE-Fluc cells, CellTiter-Fluor viability, 18-24 h; series mostly up to 46 µM; activity change, negative = cytotoxicity: at the top concentration
# Source text: NIH Molecular Libraries Probe Production Network [MLPCN]
# NIH Chemical Genomics Center [NCGC]
# Assay Provider: Shyam Biswal, Johns Hopkins University
# Nrf2 is a transcription factor that maintains cellular redox homoestasis and protects cells from xenobiotics. Nrf2 binds to the antioxidant response element (ARE) to induce gene expression of a broad spectrum of genes that encode for antioxidants. […] Finding a small molecule that act as an inhibitor of Nrf2 function would represent a novel therapeutic target that could lead to improvement in survival of patients undergoing chemo- and/or radio- therapy.
# So here we implemented a counterscreen to weed out the cytotoxic compounds.
# 1. Shibata, T., et al., Genetic Alteration of Keap1 Confers Constitutive Nrf2 Activation and Resistance to Chemotherapy in Gallbladder Cancer. Gastroenterology, 2008.
# 2. Sjoblom, T., et al., The consensus coding sequences of human breast and colorectal cancers. Science, 2006. 314(5797): p. 268-74.
# NCGC Assay Protocol Summary:
# A concentration-response assay was performed with A549 ARE_Fluc cells which are suspended in 5% FBS OPTI-MEM. Five uL were dispensed into 1536-well white TC-treated plate using the Kalypsys dispenser to achieve a density of 5000 cells/well in all columns except column 1. The plate is incubated at 37deg C at 5% CO2 for 2 hours before 23 nL of compounds are added with the Kalypsys pin tool equipped with a 1,536-pin array containing 10-nL slotted pins (FP1S10, 0.457-mm diameter, 50.8 mm long; V&P Scientific). The control compounds Budesonide and Staurosporine are both added at a concentration of 2mM and Budesonide is also added as a 1:10 titration, starting at 200uM, to achieve dose-response. After an 18-24 hour incubation at 37deg C at 5% CO2, 5ul of medium is added to column 1. Afterwards 1ul of 5x of CellTiter-Fluor (Promega) is added to every well. The plate is then incubated at 37deg C at 5% CO2 for 30 minutes before they are read on the ViewLux (Perkin Elmer) for a fluorescent read Ex=405(10)/Em=525(10) for a 3 second exposure, 2x binning, and high gain. Then 3 uL of 3x BugLite is dispensed into all wells and the plate is incubated at ambient room temperature for 15 minutes. Afterwards another ViewLux read is performed using the clear filter to get a luminescent read with the settings of 40 second exposure, 2x binning, and high gain. Cytotoxicity is assessed through the first fluorescent read and then biochemical activity against Nrf2 is measured in the luminescent read.
# On the % scale 0 is the no-effect control and ±100 the full control effect; potency means the concentration at half of the fitted maximal effect.
Structure (SMILES),"activity change, negative = cytotoxicity",Potency
CN(C)[C@@H]1C(=O)C(C(N)=O)=C(O)[C@@]2(O)C(=O)C3=C(O)c4c(O)ccc(Cl)c4[C@@](C)(O)[C@H]3C[C@@H]12,inactive: 1.47%,
CCC(C)/C=C(C)/C=C/C1=CC2=C(Cl)C(=O)C(C)(OC(C)=O)C(=O)C2=CO1 (stereo unspecified),inactive: -22.4%,
NCCc1cc(O)c(O)cc1O,inactive: -13.4%,
C[C@]12CC[C@H](O)C[C@H]1CC[C@@H]1C2CC[C@]2(C)[C@@H](C3=CC(=O)OC3)[C@@H](O)C[C@]12O (stereo partly specified),inactive: -19.7%,
C[C@H]1[C@H](OC(=O)CCC(=O)NCc2ccc(C(=O)O)cc2)O[C@@H]2O[C@@]3(C)CC[C@H]4[C@H](C)CC[C@@H]1C24OO3,,active: 20.6 µM
CC(C)n1c(/C=C/[C@H](O)C[C@H](O)CC(=O)O)c(-c2ccc(F)cc2)c2ccccc21,inactive: -12%,
O=C1/C(=C/c2ccncc2)N2CCC1CC2,inactive: 1.5%,
CC(=O)OC(C)(C)/C=C/C(=O)C(C)(O)C1C(O)CC2(C)C3CC=C4C(CC(O)C(=O)C4(C)C)C3(C)C(=O)CC12C (stereo unspecified),,active: 2.91 µM
CC[C@H](C)/C=C(C)/C=C/C1=CC2=C(Cl)C(=O)[C@@](C)(OC(C)=O)C(=O)C2=CO1,inactive: -18.4%,
COC[C@H]1OC(=O)c2coc3c2[C@@]1(C)C1=C(C3=O)[C@@H]2CCC(=O)[C@@]2(C)C[C@H]1OC(C)=O,,active: 16.4 µM
O=C1NC(=O)N(Cc2ccccc2)C(=O)/C1=C/C=C/c1ccco1,inactive: -15%,
COc1ccc(-n2c(/C=C3/C(=O)Nc4ccccc43)nc3ccccc3c2=O)cc1,inactive: -14.4%,
COc1cc2c3cc1Oc1c(OC)c(OC)cc4c1[C@H](Cc1ccc(cc1)Oc1cc(ccc1O)C[C@H]3N(C)CC2)N(C)CC4,,active: 13 µM
COc1cc2c(c(OC)c1OC)-c1ccc(O)c(=O)cc1[C@@H](NC(C)=O)CC2,inactive: -17%,
Cn1nc(-c2ccc(OCC(=O)N3CCN(Cc4ccccc4)CC3)cc2)c2ccccc2c1=O,inactive: -1.7%,
COc1ccc(OC)c(N2C(=O)NC(=O)/C(=C\c3ccc([N+](=O)[O-])s3)C2=O)c1,inactive: -15%,
CC(=O)O[C@@]12CO[C@@H]1C[C@H](O)[C@@]1(C)C(=O)[C@H](O)C3=C(C)[C@@H](O)C[C@@](O)([C@@H](OC(=O)c4ccccc4)C12)C3(C)C (stereo partly specified),inactive: -0.132%,
COc1cc(NC(=O)CCn2c(=O)oc3ccccc32)cc(OC)c1OC,inactive: 0.38%,
COc1ccc(N2C(=O)NC(=O)/C(=C\c3ccc([N+](=O)[O-])s3)C2=O)cc1,inactive: -25%,
Cc1ccccc1N1C(=O)NC(=O)/C(=C\c2cc(Br)c(N3CCOCC3)o2)C1=O,,active: 23.1 µM
Fc1ccc([C@@H]2CCNC[C@H]2COc2ccc3c(c2)OCO3)cc1,inactive: -11.2%,
COC(COC(N)=O)C1=C(N2CC2)C(=O)C(C)=C(N2CC2)C1=O (stereo unspecified),,active: 10.3 µM
Cc1cc(C)cc(N2C(=O)NC(=O)/C(=C/c3cccn3-c3ccc(Cl)cc3)C2=O)c1,inactive: -6.43%,
CC(=O)OC(C)(C)/C=C/C(=O)[C@](C)(O)C1[C@H](O)C[C@@]2(C)C3CC=C4C(C[C@H](O)C(=O)C4(C)C)[C@]3(C)C(=O)C[C@]12C (stereo partly specified),,active: 0.651 µM
COc1cc(C2c3cc4c(c(O)c3CC3COC(=O)C32)OCO4)cc(OC)c1OC (stereo unspecified),inactive: -3.43%,
CC1=C(N2CC2)C(=O)C(CO)=C(N2CC2)C1=O,,active: 9.2 µM

# From PubChem BioAssay AID504648 (National Center for Advancing Translational Sciences (NCATS), 2011)
